# The campaign covered roughly 340,000 compounds. About 6,900 (2%) were called active. No stated cut-off is given here; in the data, active means inhibition above about 30%; inactive means below that, where a call was filed. Only a part is listed here, and it is no random draw. Entries without a call were filed so in the source.
# Biological target: D(2) dopamine receptor (Homo sapiens) (UniProt P14416)
# Assay: HTS Assay for Allosteric Antagonists of the Human D2 Dopamine Receptor: Primary Screen for Antagonists; further: 0% is about no effect
# Settings: HEK293 TREx D2 cells, calcium flux, dopamine EC80; at 10 µM; stronger effect = higher value
# Outline: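 In this primary screen, negative modulation is detected by tracking calcium flux after an EC80 dopamine challenge in inducible HEK293 T-REx D2 cells preexposed to test compound for 180 s.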
# Sequence of UniProt P14416 (P14416 whole entry, looked up): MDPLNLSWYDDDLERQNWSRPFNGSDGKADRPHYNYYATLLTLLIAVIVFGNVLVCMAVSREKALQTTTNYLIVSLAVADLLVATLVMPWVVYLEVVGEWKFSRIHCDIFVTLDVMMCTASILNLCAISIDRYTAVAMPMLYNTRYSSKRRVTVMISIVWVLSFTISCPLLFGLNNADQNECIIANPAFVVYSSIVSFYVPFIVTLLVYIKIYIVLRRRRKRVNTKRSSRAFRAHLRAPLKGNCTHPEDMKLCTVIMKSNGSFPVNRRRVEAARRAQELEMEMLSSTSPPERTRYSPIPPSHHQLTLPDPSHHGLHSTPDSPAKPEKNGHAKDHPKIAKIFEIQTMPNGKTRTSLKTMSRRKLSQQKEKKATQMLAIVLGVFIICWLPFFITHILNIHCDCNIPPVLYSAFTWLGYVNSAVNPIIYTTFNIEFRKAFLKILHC
row,SMILES,inhibition
1,Fc1ccc(CN2CCc3nc(Nc4ccccc4)ncc3C2)cc1F,10.2%
2,COc1ccc(C2C(=O)N(C3CCCCCC3)CC(=O)N2Cc2ccc(C)cc2)cc1OC (configuration not stated),-14.3%
3,Cc1ccc(CNC(=O)CSc2cc(C)[nH]c(=O)n2)cc1,-18.4%
4,O=C(NCc1ccco1)c1ccc2c(c1)N(Cc1cccc(Cl)c1)C(=O)c1ccccc1S2(=O)=O,9.75%
5,COc1ccc(-c2noc(CNC(=O)c3ccco3)n2)cc1,4.63%
6,Cc1nn(-c2ccccc2)c2nc(C3CC3)cc(C(=O)Nc3ccccc3F)c12,3.44%
7,COc1ccccc1C1CCN(Cc2ccc(C)cc2)CC1,active: 95.1%
8,CCOc1ccc(C(=O)c2cn(Cc3ccccc3OC)c3ccc(F)cc3c2=O)cc1,4.49%
9,COc1ccc(S(=O)(=O)N2CCC(Oc3ccc(-n4cnnn4)cc3)CC2)cc1OC,-4.42%
10,CCOc1ccc(N(CC(=O)NCc2ccccc2Cl)S(=O)(=O)c2c(C)[nH]c(=O)[nH]c2=O)cc1,-1.86%
11,COc1cc(CN2CCN(CCCc3ccccc3)CC2CCO)cc(OC)c1 (configuration not stated),active: 65.3%
12,CC(=O)Nc1ccc(NC(=O)CSc2nc3ccccc3nc2N2CCOCC2)cc1,-10.7%
13,Oc1c(C(c2ccccc2Cl)N2CCCC2)sc2nc(-c3ccco3)nn12 (configuration not stated),-2.66%
14,CCc1ccc(NC(=O)CN(c2ccc(OC)cc2)S(=O)(=O)c2c(C)[nH]c(=O)[nH]c2=O)cc1,-9.9%
15,Clc1ccccc1CN1CCN(c2ncccn2)CC1,active: 75.8%
16,COc1ccc(-n2c(CC3C(=O)N(C)c4ccc(C)cc43)nc3ccccc3c2=O)cc1 (configuration not stated),8.77%
17,O=S(=O)(c1ccccc1)N1CCN(C(=S)NCCc2ccccc2)CC1,active: 38.4%
18,Cc1ccc(NC(=O)/C=C/c2ccc(C)o2)c(C)c1,5.78%
19,Cc1ccccc1OCC(=O)OCC(=O)Nc1ccc(Cl)cn1,active: 30.6%
20,CCCn1c(N)c(NCCN2CCOCC2)c(=O)n(CC(=O)NCc2ccccc2)c1=O,active: 32.7%
21,Cc1cc(C(F)F)n2nc(C(=O)Nc3c(C)cccc3C)nc2n1,7.23%
22,O=c1c2c(-c3ccccc3)ccnc2[nH]n1-c1ccccc1,-2.39%
23,Cc1nn(C(=O)c2c(F)cccc2F)c(C)c1S(=O)(=O)N1CCOCC1,-6.18%
24,CCCC1=Nc2cc(C(=O)NC(C)c3ccccc3)ccc2Sc2ccc(C)cc21 (configuration not stated),9.95%
25,COCCN1C(=O)c2[nH]nc(-c3ccccc3O)c2C1c1ccc(Cl)c(Cl)c1 (configuration not stated),-7.97%
26,O=C(CCN1N=C(c2ccccc2)CCC1=O)NCCc1ccc(Cl)cc1,-16.1%
27,COc1ccc(CCNC(=O)c2ccc3c(c2)N(Cc2ccccc2F)C(=O)c2ccccc2S3(=O)=O)cc1OC,-11.7%

# Source: PubChem BioAssay AID485344 (National Center for Advancing Translational Sciences (NCATS), 2010)
